From article PMC10200994

Target: STAT3 (unphosphorylated, wild-type), fluorophore fusion (UniProt P40763)
Assay: co-localization assay (relocalisation of a test protein by a compartment-targeted bait, fluorescence microscopy); HeLa cells co-expressing bait (STAT-NES or STAT-NLS, or wild-type STAT2 with its own export activity; green) and test protein without heterologous signal (red); no cytokine; fixed 20 h after transfection; Pearson correlation coefficient rP in cells with equimolar to 4-fold excess of bait

## STAT3 (unphosphorylated, wild-type), fluorophore fusion (a stretch of the chain, sequence left out) (natural protein; other documents disagree on this pair)
  Pearson correlation coefficient rP (co-localization): > 0.94
